The results in this text go back to the GPR68 mutational scans of Howard et al. (2025).

First the molecules themselves.
B1: GPR68, Q15743 (parent)
chain: MGNITADNSSMSCTIDHTIHQTLAPVVYVTVLVVGFPANCLSLYFGYLQIKARNELGVYLCNLTVADLFYICSLPFWLQYVLQHDNWSHGDLSCQVCGILLYENIYISVGFLCCISVDRYLAVAHPFRFHQFRTLKAAVGVSVVIWAKELLTSIYFLMHEEVIEDENQHRVCFEHYPIQAWQRAINYYRFLVGFLFPICLLLASYQGILRAVRRSHGTQKSRKDQIQRLVLSTVVIFLACFLPYHVLLLVRSVWEASCDFAKGVFNAYHFSLLLTSFNCVADPVLYCFVSETTHRDLARLRGACLAFLTCSRTGRAREAYPLGAPEASGKSGAQGEEPELLTKLHPAFQTPNSPGSGGFPTGRLA

Scores with a large standard error are left out. Not listed are two conditions whose scores span a narrow range. Names with del lack the residues named; names with ins carry added residues between the positions named. For some assays here: The data file names ogerin without a concentration.

Variants of B1 are the subject of data set [1]. As to the kind of experiment: cAMP reporter score (Enrich2 score, wild type = 0); higher = more signal; HEK293T, FACS bins.
Data set [2] covers variants of B1. Description: surface expression score (Enrich2 score, wild type = 0); higher = more signal; HEK293T, FACS bins.

Regarding L272_L273del, the cAMP reporter score in data set [1] (pH 5.5) is -1.45; in data set [1] (pH 6) it was -0.58; in data set [1] (pH 6, modulator: ogerin), -1.57; in data set [1] (pH 6.5, modulator: ogerin) it was -1.06. Further, the surface expression score in data set [2] is -1.33.

As for S271N, the cAMP reporter score in data set [1] (pH 5.5) is -0.85; in data set [1] (pH 6), -0.385; in data set [1] (pH 6, modulator: ogerin), -1.38; in data set [1] (pH 6.5, modulator: ogerin) it was -1.14. Also, in data set [2], the surface expression score is -1.69.

With S271I, the cAMP reporter score is -1.23 in data set [1] (pH 5.5); -0.577 in data set [1] (pH 6); -1.93 in data set [1] (pH 6, modulator: ogerin); -1.37 in data set [1] (pH 6.5, modulator: ogerin). Moreover, the surface expression score in data set [2] was -2.7.

In the case of S271T, the cAMP reporter score is -0.179 in data set [1] (pH 5.5); -0.702 in data set [1] (pH 6); -0.241 in data set [1] (pH 6, modulator: ogerin); -0.593 in data set [1] (pH 6.5, modulator: ogerin). Moreover, the surface expression score in data set [2] amounted to 0.302.

For S271R, the cAMP reporter score was -0.955 in data set [1] (pH 5.5); -1.11 in data set [1] (pH 6); -1.5 in data set [1] (pH 6, modulator: ogerin); -1.06 in data set [1] (pH 6.5, modulator: ogerin). Also, the surface expression score in data set [2] is -2.48.

Take S271L: the cAMP reporter score in data set [1] (pH 5.5) was -1.56; in data set [1] (pH 6), -1.69; in data set [1] (pH 6, modulator: ogerin) it was -1.68; in data set [1] (pH 6.5, modulator: ogerin), -1.19. In data set [2], the surface expression score is -1.68.

Take S271A: the cAMP reporter score in data set [1] (pH 5.5) worked out at 0.902; in data set [1] (pH 6, modulator: ogerin), 1.39; in data set [1] (pH 6.5, modulator: ogerin), 1.19. Besides, the surface expression score in data set [2] stood at 0.918.

For S271C, the cAMP reporter score in data set [1] (pH 5.5) is 0.276; in data set [1] (pH 6) it was -0.947; in data set [1] (pH 6, modulator: ogerin), 0.854; in data set [1] (pH 6.5, modulator: ogerin), 0.029. Also, the surface expression score in data set [2] worked out at 0.072.

Turning to S271F, the cAMP reporter score in data set [1] (pH 5.5) is -1.24; in data set [1] (pH 6), -1.25; in data set [1] (pH 6, modulator: ogerin) it was -0.901; in data set [1] (pH 6.5, modulator: ogerin) it was -0.978. For the same variant, the surface expression score in data set [2] was -1.36.

With S271K, the cAMP reporter score in data set [1] (pH 5.5) is -1.75; in data set [1] (pH 6), -0.291; in data set [1] (pH 6, modulator: ogerin) it was -0.98; in data set [1] (pH 6.5, modulator: ogerin) it was -1.58. Moreover, the surface expression score in data set [2] is -2.16.

Take S271M: the cAMP reporter score in data set [1] (pH 5.5) was -1.93; in data set [1] (pH 6) it was -0.838; in data set [1] (pH 6, modulator: ogerin), -1.31; in data set [1] (pH 6.5, modulator: ogerin) it was -0.573. The surface expression score in data set [2] was -1.99.

S271H: the cAMP reporter score in data set [1] (pH 5.5) is -1.52; in data set [1] (pH 6.5, modulator: ogerin), -2.49.

S271E: the cAMP reporter score in data set [1] (pH 5.5) was -2.94; in data set [1] (pH 6, modulator: ogerin), -2.42; in data set [1] (pH 6.5, modulator: ogerin) it was -0.401. For the same variant, the surface expression score in data set [2] was -2.23.

Regarding S271D, the cAMP reporter score in data set [1] (pH 5.5) was -0.408; in data set [1] (pH 6.5, modulator: ogerin) it was -0.429.

Take S271P: the cAMP reporter score in data set [1] (pH 5.5) was -0.771; in data set [1] (pH 6, modulator: ogerin), -1.91. Besides, the surface expression score in data set [2] was -2.31.

Regarding S271V, the cAMP reporter score in data set [1] (pH 5.5) was -0.823; in data set [1] (pH 6.5, modulator: ogerin), -1.48. In data set [2], the surface expression score was -0.714.

Regarding S271Q, the cAMP reporter score in data set [1] (pH 5.5) was -1.87; in data set [1] (pH 6) it was -0.108; in data set [1] (pH 6.5, modulator: ogerin) it was -0.841. Besides, in data set [2], the surface expression score is -1.65.

As for S271G, the cAMP reporter score in data set [1] (pH 5.5) is 0.338; in data set [1] (pH 6), -0.366; in data set [1] (pH 6, modulator: ogerin), -0.318; in data set [1] (pH 6.5, modulator: ogerin), 1.41. The surface expression score in data set [2] was -0.79.

Consider L272_L273insG, for which the cAMP reporter score in data set [1] (pH 5.5) is -1.25; in data set [1] (pH 6), -1.75; in data set [1] (pH 6, modulator: ogerin), -1.91; in data set [1] (pH 6.5, modulator: ogerin), -2.18. For the same variant, the surface expression score in data set [2] is -2.13.

As to S271del, the cAMP reporter score in data set [1] (pH 5.5) was -2.06; in data set [1] (pH 6) it was -1.04; in data set [1] (pH 6, modulator: ogerin), -1.37; in data set [1] (pH 6.5, modulator: ogerin), -1.24. Besides, in data set [2], the surface expression score is -2.92.

Consider F270del, for which the cAMP reporter score in data set [1] (pH 5.5) is -1.3; in data set [1] (pH 6), 0.498; in data set [1] (pH 6.5, modulator: ogerin) it was 0.006. The surface expression score in data set [2] was -2.85.

Take T275_S276del: the cAMP reporter score in data set [1] (pH 5.5) was -0.413.

In the case of A267_Y268insG, the cAMP reporter score in data set [1] (pH 5.5) was -1.37; in data set [1] (pH 6), -1.07; in data set [1] (pH 6, modulator: ogerin), -0.423; in data set [1] (pH 6.5, modulator: ogerin), -0.85. Also, the surface expression score in data set [2] was -0.404.

In the case of L272A, the cAMP reporter score in data set [1] (pH 5.5) was -0.519; in data set [1] (pH 6) it was -0.131; in data set [1] (pH 6.5, modulator: ogerin), -0.837. Also, in data set [2], the surface expression score is -0.923.

As for L272K, the cAMP reporter score in data set [1] (pH 5.5) is -1.17; in data set [1] (pH 6), -0.367; in data set [1] (pH 6, modulator: ogerin) it was -0.935; in data set [1] (pH 6.5, modulator: ogerin), -0.513.

Take L272H: the cAMP reporter score in data set [1] (pH 5.5) was 0.566; in data set [1] (pH 6), -0.559; in data set [1] (pH 6, modulator: ogerin), 0.183; in data set [1] (pH 6.5, modulator: ogerin) it was -0.105. For the same variant, the surface expression score in data set [2] is -1.85.

In the case of L272G, the cAMP reporter score in data set [1] (pH 5.5) is -1.25; in data set [1] (pH 6), -0.739; in data set [1] (pH 6, modulator: ogerin) it was -2.02; in data set [1] (pH 6.5, modulator: ogerin) it was 0.375.

In the case of L272R, the cAMP reporter score was -0.539 in data set [1] (pH 5.5); -1.01 in data set [1] (pH 6); -0.43 in data set [1] (pH 6, modulator: ogerin); -0.436 in data set [1] (pH 6.5, modulator: ogerin). In addition, the surface expression score in data set [2] is -0.934.

On to L272C, for which the cAMP reporter score is -1.68 in data set [1] (pH 5.5); -1.36 in data set [1] (pH 6); -1.1 in data set [1] (pH 6, modulator: ogerin); -1.36 in data set [1] (pH 6.5, modulator: ogerin). Further, the surface expression score in data set [2] is -0.742.

L272P: the cAMP reporter score is -1.81 in data set [1] (pH 5.5); -1.3 in data set [1] (pH 6); -1.31 in data set [1] (pH 6, modulator: ogerin); -1.7 in data set [1] (pH 6.5, modulator: ogerin). In addition, in data set [2], the surface expression score was -2.56.

As to L272I, the cAMP reporter score in data set [1] (pH 5.5) is -1.03; in data set [1] (pH 6), -1.25; in data set [1] (pH 6, modulator: ogerin), -1.55; in data set [1] (pH 6.5, modulator: ogerin), -1.04. For the same variant, the surface expression score in data set [2] came out at 0.548.

For the variant L272E, the cAMP reporter score in data set [1] (pH 5.5) is -1.06; in data set [1] (pH 6) it was -0.28; in data set [1] (pH 6, modulator: ogerin), -1.31; in data set [1] (pH 6.5, modulator: ogerin) it was -0.944. Further, the surface expression score in data set [2] is -0.785.

For L272S, the cAMP reporter score was -1.41 in data set [1] (pH 5.5); -0.349 in data set [1] (pH 6); -1.99 in data set [1] (pH 6, modulator: ogerin); -1.8 in data set [1] (pH 6.5, modulator: ogerin). The surface expression score in data set [2] was -1.96.

Consider L272D, for which the cAMP reporter score in data set [1] (pH 5.5) was -0.422; in data set [1] (pH 6, modulator: ogerin), -0.616.
